Results taken from the supplement of paper PMC4466236.
Over roughly 33,000 sequences, “E-score (dimensionless, -0.5 to 0.5)” has its median near -0.058; the highest 2% begin near 0.35. The list shows a part of the results.

system: MvaT; test: PBM 8-mer E-score (mean of HK and ME arrays) (E-score (dimensionless, -0.5 to 0.5)); higher = stronger relative binding preference; most listed sequences are background and not binding sites
Outline: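 Full-length P. aeruginosa MvaT carrying an N-terminal glutathione S-transferase tag was tested by protein binding microarray following a previously described protocol. Two universal double-stranded 60-mer arrays, ME and HK, were used, each with a constant 25-mer primer region and a variable 35-mer region covering all 8-mers. The rank-based E-score is the mean of the two arrays, parsed with a custom script. Its range runs from -0.5 to 0.5 for each 8-mer.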

Sequence	PBM 8-mer E-score
AATCACGC	-0.0219
CTATTTAC	0.318
GCGAGTGA	-0.0916
AACATCAA	0.182
TGGTAAAA	0.0973
ACTAAGAT	0.252
CGTAGGTC	-0.345
CGTCTCAC	-0.114
AATGCAAG	0.109
CAATCCGC	-0.18
CGAGAGAC	-0.277
ATACCTAT	0.13
ATAGAGGG	-0.199
ACTTCTCC	0.2
CACATACA	0.242
ATTTTGGG	0.169
CAAACTTA	0.272
CTAAACCC	-0.00994
AACTACCA	0.17
GGTCGTCA	-0.219
CACCACGG	-0.206
GCTCTGCA	-0.291
AAGCTTAA	0.12
TTCTCAAA	0.147
CCAGTTTC	-0.0566

Sequence	PBM 8-mer E-score
CCACGGAG	-0.0786
AAGCTAAG	-0.0822
TCCAAGAA	-0.0455
CACCCAGG	-0.241
ATTAGGTC	0.0956
AGCACTTA	-0.0328
CTACGTTA	-0.036
GTTGTTCA	0.128
TAGTACTA	0.174
GAATTAAA	0.385
ACCGCCGG	-0.0768
AGCATGCT	-0.199
CGACACAG	-0.183
CCCAACAA	0.0257
ATTATTAG	0.411
GGTCTCAA	-0.207
GCCTGTGA	-0.155
GTCGTCAC	-0.234
ACGGTGAA	0.00351
CTAGATCC	-0.119
CCTAAACC	-0.0826
GACAGTCA	-0.171
TAGTTTCA	0.224
GTAAATAA	0.366
ATATGCCG	0.181

Sequence	PBM 8-mer E-score
AGTAGCTC	-0.137
ACTGGACT	-0.0688
GGAACTCC	-0.224
TACATGAA	0.147
CACCTCGG	-0.182
CACAGACG	-0.11
AGGACATA	0.0627
GACATAAA	0.144
GTCCTGTA	-0.124
GTATCCTA	-0.0757
CTAAATCA	0.0639
AGAAATAG	0.216
GATACACA	0.0369
CATTTTGG	-0.0361
ACACTGCT	0.0055
CTCTCCGA	-0.171
GTACCCGA	-0.144
TGCCAGAA	-0.102
GAGAAGAA	-0.0284
ACTGAGAG	-0.191
AGCGATTG	-0.101
CCTACATA	0.115
GGGTCTGA	-0.0915
AGTCGAAA	-0.0704
AGGTTCTG	-0.13

Sequence	PBM 8-mer E-score
GTGGCATA	0.0717
ACTTCTAA	0.242
GCCCGTCC	-0.237
TACTTGCA	0.306
ACGGTACG	-0.0791
ATCCGCTG	-0.0237
AACTTCCG	0.191
GAAAGAGA	-0.126
ACCGTCCC	-0.2
CTTCTAGA	0.0287
ACTTTAAT	0.414
ATGCAGTA	0.0837
AACAGAAT	0.0463
ACGGAGCG	-0.116
GTATTCAA	0.0763
AAGCACCT	-0.225
GCATAAAA	0.144
CCGGGTGA	-0.208
AAGTGCGT	-0.0188
CTCGGCAG	-0.0953
CACCTGCG	-0.14
ATATTGGC	0.177
ACTCGTGA	-0.0788
CGTCCCGC	-0.189
AACGTTCG	-0.102

Sequence	PBM 8-mer E-score
ATGTGAGC	-0.189
TCAGGTCA	-0.0957
AAGATAGC	0.0337
AAGCTTTG	-0.0765
AAAAGGCA	0.00305
AAAGTGCT	0.105
AGCACCGA	-0.159
ATACTGGA	0.0175
CTGACAAA	0.139
AAAGGATT	-0.0352
CAACCACA	-0.0394
CGCCCCGC	-0.284
ACATAGAC	0.2
ACACATCC	0.0566
GACTGCAA	-0.05
AAGGCAAT	0.0531
ATAGCCTG	-0.159
AAGCCCAG	-0.199
GGTGTTGA	0.0185
AACGTACT	0.0808
TCCAATAA	0.214
CCCCGGGG	-0.355
ATTTCTAC	0.103
ACTACTTG	0.235
GCACGTGA	-0.00311

Sequence	PBM 8-mer E-score
AACTTAAC	0.323
GAAGCACA	-0.0798
CAATCCCG	0.0103
ATACCGTG	-0.143
GCGTGTCC	-0.236
ACACATGT	-0.0302
CATTCAGA	0.00448
ATCCGCTA	0.0484
ACCTGGGC	-0.147
GGTTGAAC	-0.0388
CATTAACG	0.143
AAGAATCA	0.0343
ATATCACG	0.243
CGCATAAA	0.105
ATTAAGAC	0.255
CCTGATTC	0.0142
ACCCCGGA	-0.207
TGTACACA	-0.00119
GCACTCAA	-0.124
AATCAAAT	0.229
ACCAGAAC	-0.0716
AGAAAGGA	-0.119
ATTTAACA	0.376
CGCGTCAG	-0.159
GAGAGGAA	-0.168

Sequence	PBM 8-mer E-score
ATACTCAT	0.175
CCAATTCC	0.0341
ATTATCGC	0.142
CGGAAAAA	-0.0606
AACTGTGG	-0.0417
AGGCAGGC	-0.258
ATGGACAA	0.0796
AGGGTATG	-0.0579
AGAGACTC	-0.164
CGAGTGCG	-0.145
CTAGAGTC	-0.248
ATGTATCG	0.0953
ATCAGGTG	-0.0852
GTGTAAAC	0.0891
AAGGCATC	-0.11
CTAAAGCA	-0.0922
ACACTGCA	-0.00818
ACGTTTGG	-0.0109
ACCGGGGA	-0.167
CTTCTTCC	-0.3
AGCCAACC	-0.165
AAGACGAC	-0.103
